Assay results published in paper PMC4336329 (PLoS ONE, 2015).
The campaign covered roughly 310,000 compounds. About 2,200 (0.71%) showed an effect of 50% or more. The effect is printed as a negative number. The list shows a part of the results.

molecular target: human ether-à-go-go-related gene (hERG) potassium channel (human, UniProt Q12809); test: primary screen, population patch clamp on CHO cells stably expressing hERG
Sequence (Q12809 whole entry, looked up): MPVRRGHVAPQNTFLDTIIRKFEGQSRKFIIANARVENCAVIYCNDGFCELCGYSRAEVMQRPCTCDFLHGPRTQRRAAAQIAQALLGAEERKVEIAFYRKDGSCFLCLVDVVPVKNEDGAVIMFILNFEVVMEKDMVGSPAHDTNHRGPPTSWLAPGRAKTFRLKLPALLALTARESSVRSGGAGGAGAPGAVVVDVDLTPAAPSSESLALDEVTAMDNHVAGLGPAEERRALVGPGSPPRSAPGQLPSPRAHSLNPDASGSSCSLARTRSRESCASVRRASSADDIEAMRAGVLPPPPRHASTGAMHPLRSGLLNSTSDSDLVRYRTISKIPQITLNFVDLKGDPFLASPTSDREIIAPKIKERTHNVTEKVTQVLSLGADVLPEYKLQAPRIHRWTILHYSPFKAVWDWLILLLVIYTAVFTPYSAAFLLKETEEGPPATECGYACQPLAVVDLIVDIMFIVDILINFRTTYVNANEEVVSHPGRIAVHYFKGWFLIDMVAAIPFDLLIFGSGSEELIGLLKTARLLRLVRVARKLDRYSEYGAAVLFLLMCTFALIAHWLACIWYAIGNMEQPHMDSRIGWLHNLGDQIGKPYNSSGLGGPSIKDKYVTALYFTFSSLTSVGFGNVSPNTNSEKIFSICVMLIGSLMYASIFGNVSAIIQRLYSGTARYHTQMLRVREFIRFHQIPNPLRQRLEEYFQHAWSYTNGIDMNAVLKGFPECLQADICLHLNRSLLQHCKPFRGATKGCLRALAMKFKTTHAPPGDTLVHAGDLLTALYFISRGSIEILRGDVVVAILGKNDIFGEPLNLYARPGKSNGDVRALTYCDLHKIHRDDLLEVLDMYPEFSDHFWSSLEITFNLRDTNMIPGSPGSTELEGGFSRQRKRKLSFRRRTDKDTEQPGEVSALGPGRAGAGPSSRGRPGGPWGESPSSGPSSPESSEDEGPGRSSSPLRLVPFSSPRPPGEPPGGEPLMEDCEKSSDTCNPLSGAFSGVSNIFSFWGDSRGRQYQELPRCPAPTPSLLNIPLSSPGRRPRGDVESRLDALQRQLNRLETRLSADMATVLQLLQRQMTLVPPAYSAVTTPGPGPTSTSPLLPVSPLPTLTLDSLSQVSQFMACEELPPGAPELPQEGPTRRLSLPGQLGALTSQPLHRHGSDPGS

Compound | hERG current change (%, negative = inhibition) at 1uM [%]
CCOC(=O)N1CCN(C(=O)c2cc(COc3ccc(OC)cc3Cl)on2)CC1 | 9.02
Cc1cc(C)cc(NC(=O)CS(=O)(=O)c2ccccc2)c1 | 15.4
COc1ccc(NC(=O)CN2C(=O)CSC(C)C2=O)cc1 (stereo not shown) | 8.98
COc1ccc2cc(C(=O)OC(C)C)sc(=O)c2c1OC | 7.17
O=C(COC(=O)CNC(=O)c1ccco1)NCCN1C(=O)CSC1=O | 10.9
NS(=O)(=O)c1ccc(NC(=O)CSC2CCCCC2)cc1 | 3.32
CCCS(=O)(=O)N1CCN(c2cc3c(cc2[N+](=O)[O-])n(C)c(=O)n3C)CC1 | -2.36
CCOC(=O)[C@@H]1[C@H]2COc3ccccc3[C@H]2N2C(=O)N(c3cccc(F)c3)C(=O)[C@]12C | 0.271
Cc1ccc(Nc2nc3ccccc3s2)cc1 | 1.66
Cc1oc2ccc(OCc3ccc(F)cc3Cl)cc2c1C(=O)O | 15.5
COc1cccc(C(=O)OC(C)CN2CCCC2)c1.Cl (stereo not shown) | 10.5
O=C(NNC(=O)c1cccc(Br)c1)C(=O)N1CCCCC1 | 5.91
CC(=O)NC1=NN(C(C)=O)C(c2sccc2C)S1 (stereo not shown) | 13.6
COc1ccc(NCc2cc3cc(OC)ccc3[nH]c2=O)cc1 | 3.24
Cc1cc(=O)[nH]c(SCc2cccc(Br)c2)n1 | 6.78
COc1ccc(S(=O)(=O)N2CCCCCC2)cc1NC(=O)Cc1ccccc1 | 1.32
O[C@@H]1C2CCCC1[C@]1(O)CCCCC1C2 (stereo partly shown) | 13.5
Cc1cccc(NC(=O)c2c(C)nc3ccccn23)c1 | 3.98
CCCCN(c1ccccc1)c1ncnc(N)c1[N+](=O)[O-] | 12
COc1ccc(Cl)cc1CN1CCOCC1.Cl | 19.6
COc1cccc(C(=O)CSc2nc3cccnc3n2C)c1 | 8.81
CCC(=O)Nc1cccc(NC(=S)NC(=O)c2ccccc2C)c1 | 5.27
CCOc1cc(CNc2ccc(CNc3ncn[nH]3)cc2)ccc1OCc1ccccc1 | 8.15

Compound | hERG current change (%, negative = inhibition) at 1uM [%]
COc1ccc(CNS(=O)(=O)c2csc(C(N)=O)c2)cc1OC | 7.01
COC(=O)c1cc(C(=O)N2CCN(c3cccc(C)c3C)CC2)cc([N+](=O)[O-])c1 | -8.86
Cc1cc(C)c(S(=O)(=O)NCc2cn3c(C)csc3n2)cc1C | -8.49
O=C(COC(=O)c1cccc(Cl)c1Cl)NCCN1C(=O)CSC1=O | 6.81
CCOc1ccccc1NC(=O)CSc1cn[nH]n1 | -3.65
Cc1ccc(NC(=O)Cn2nnc(C(=O)NCc3ccc4c(c3)OCO4)c2N)cc1 | 14.2
O=C(NNc1ccc(O)cc1)c1ccc(Br)cc1 | -1.92
CCOC(=O)c1nc(Nc2ccc(C(C)=O)cc2)c2ccccc2n1 | 10.8
COc1cc(C(=O)N/N=C/c2ccc(OC(=O)N3CCOCC3)cc2)cc(OC)c1OC | -2.8
S=C(NCCN1CCCCC1)Nc1ccc(Br)cc1 | -31.2
CCOc1ccc(CC(=O)NC2CC(C)(C)N(C)C(C)(C)C2)cc1OCC | 8.83
COC(=O)c1[nH]c2ccc(C)cc2c1NC(=O)c1ccccc1[N+](=O)[O-] | -1.11
NNC(=O)c1cccn(Cc2ccc(Cl)cc2Cl)c1=O | 10.9
COc1ccc(/C=N/Nc2nnc(Cc3ccc(OC)c(OC)c3)c(=O)[nH]2)cc1OC | 10.5
N#Cc1ccc(CSc2nnc3[nH]c(=O)cc(N)n23)cc1 | 5.58
Cc1nn(-c2ccccc2)cc1C(c1c(N)[nH]c(=S)[nH]c1=O)c1c(N)[nH]c(=S)[nH]c1=O | 9.75
CCCCc1c(C)nc2c(OC)cccc2c1SCC(=O)O | 6.75
O=C(CN1CCN(c2ccc(C(F)(F)F)cn2)CC1)Nc1ccc2c(c1)OCO2 | 7.69
COCc1cc(/C=N\NC(=O)COc2ccc(Cl)cc2)ccc1OC | 14.7
Cc1ccc(OCc2nnc(SCC(=O)c3cccc([N+](=O)[O-])c3)n2C)cc1 | -1.17
COc1ccccc1N=c1sc2ccccc2n1C | -6.03
CC1=C(C(=O)NC2CC(C)(C)Cc3c2cnn3-c2cccc(F)c2)OCCO1 (stereo not shown) | -3.59
COc1ccc(C(C)=O)cc1COC(=O)c1ccc2c(c1)OCO2 | 21.5

Compound | hERG current change (%, negative = inhibition) at 1uM [%]
O=C(c1n[nH]c2ccccc12)N1CCOCC1 | 13.4
CC(C)c1nnc(NC(=O)C2CCN(S(=O)(=O)c3ccc(-n4cnnn4)cc3)CC2)s1 | 6.23
Cc1ccc(S(=O)(=O)N2CCC(C(N)=O)CC2)c(C)c1C | -4.89
CC(C)(C)n1nc2c(c1NC(=O)c1cc3ccccc3o1)CSC2 | 8.58
Cc1ccc2nc(SC(C)C(=O)N3CC(C)OC(C)C3)[nH]c2c1 (stereo not shown) | 11.6
Cc1ccc(NC(=O)c2ccc3c(c2)OCO3)cc1Cl | 5.25
CCN1CCN(C(=O)CCCn2c(C)c3cnn(-c4ccccc4)c(=O)c3c2C)CC1 | 13.8
CN1CCN(c2nnc(-c3cccs3)c3ccccc23)CC1 | -4.7
CC(=O)c1cccc(NC(=O)Cn2nc(-c3ccccc3Cl)ccc2=O)c1 | -1.66
CCOCCCNC(=O)C(c1ccccc1)N(Cc1ccc2c(c1)OCO2)C(=O)c1ccccc1O (stereo not shown) | 15.2
O=C(Nc1cccc(F)c1)c1ccc2c(c1)OCO2 | 11
Cc1[nH]c(-c2ccc(F)cc2)cc1C(=O)N1CCN(c2ccccc2F)CC1 | -25
CSc1cccc(NC(=O)c2sc3nc4n(c(=O)c3c2C)CCC4)c1 | 15.6
Cc1ccc(-c2csc(=Nc3cccnc3)n2CCCn2ccnc2)cc1C | -22.2
O=C1CCCC2=C1C(c1ccc(Br)cc1)c1c([nH]c(=S)[nH]c1=O)N2 (stereo not shown) | 6.34
Cc1cnc(NC(=O)CSc2nnc(-c3ccccc3)n2Cc2ccccc2)s1 | 6.59
Cc1ccnc(NS(=O)(=O)c2ccc(NC(=O)CCS(=O)(=O)c3ccccc3)cc2)n1 | 20.7
Cc1ccc(N2C(=O)CSC2c2ccc3c(c2)OCO3)cc1 (stereo not shown) | 13.2
O=C(Nc1ccccc1C(=O)NC(Cc1c[nH]c2ccccc12)C(=O)O)c1ccccc1 (stereo not shown) | 9.02
Clc1ccc2nc(-c3ccncc3)cc(-c3ccccc3)c2c1 | 19.6
Cc1ccc(OCCCCCN2CCOCC2)c(Cl)c1 | 5.12
O=C(NC(=S)Nc1ccc(Br)c(Cl)c1)C1CC1 | 13.7
Fc1ccc(-c2csc3[n+]2CCS3)cc1.[Br-] | 7.76

Compound | hERG current change (%, negative = inhibition) at 1uM [%]
Cc1ccc(Cl)cc1N1CCN(C(=O)C2CCN(S(C)(=O)=O)CC2)CC1 | 4.38
CC(=O)Nc1nc2ccccc2n1CCN1CCOCC1 | 7.92
NC(=O)NCC12CC3CC(CC(C3)C1)C2 | 16.8
Cc1ccc(C2N(c3ccccc3)C(=S)N3CCCN23)cc1 (stereo not shown) | 14.9
COc1ccc(OC)c(N(C)S(=O)(=O)c2ccc3c(c2)N(C(C)=O)CCO3)c1 | 6.97
O=C(OCC(=O)N(Cc1ccccc1)Cc1ccccc1)c1ccccc1O | 9.63
COc1ccc(OC)c(N=c2oc3c(OC)cccc3cc2C(=O)NCc2ccco2)c1 | 8.21
CC(C)(C)NC(=O)CN(C(=O)CS(=O)CC(=O)Nc1ccc(F)cc1)c1ccc(Cl)cc1 (stereo not shown) | 12.9
COc1cccc(CN(C(=O)c2ccc([N+](=O)[O-])cc2)C2CCS(=O)(=O)C2)c1 (stereo not shown) | -16
O=[N+]([O-])c1cccc2ccc(/C=C/c3ccc(Cl)cc3)nc12 | 1.88
COc1cccc(-c2nnn(CC(=O)Nc3cc(OC)c(NC(=O)c4ccco4)cc3OC)n2)c1 | -4.1
COc1cnc(-c2ccccn2)nc1Sc1ccc(Cl)cc1 | -0.893
CC(=O)c1c(N)c(C#N)c(C)n1-c1ccc(Br)cc1 | 14.2
CC(OC(=O)c1cc(=O)[nH]c2ccccc12)C(=O)NCc1ccccc1 (stereo not shown) | 15.9
CCOC(=O)Cn1c(=O)c(F)cn(Cc2ccc(OC)c([N+](=O)[O-])c2)c1=O | 11.4
Cc1ccc(NC(=O)COc2ccccc2C(=O)Nc2ccccc2)cc1Cl | 6.93
CSc1n[nH]c(=O)n1C1CCCCC1 | 11.4
COc1ccc(NC(=O)N2CCCC(CCC(=O)N(C)CCc3ccccn3)C2)cc1 (stereo not shown) | 6.05
CCC(=O)Nn1c(C2CCC2)nc2ccccc2c1=O | 14.3
COc1ccc(CCNC(=S)Nc2ccccc2C)cc1 | 10.5
Cc1ccnc2nc(C(=O)NCc3cccs3)nn12 | 7.81
CSc1nnc(-c2ccco2)n1-c1ccccc1 | 10.6
